SMILES strings stand for the structures. Out of some 46,000 compounds screened, about 60 (0.1%) were called active. Not shown: some 3% with an inconclusive outcome. Calls follow the shape of the dose curve; as a rule, active = well fitted inhibition curve with a large enough effect; inconclusive = small, poorly fitted or top-dose-only effect; inactive = no such curve, though single readings can be large or run the other way. This is one part of the list.

This test can be described thus: Primary qHTS assay for Inhibitors of ovarian cancer metastasis using an organotypic tumor microenvironment (TME) model. Also: nearly all actives have a fitted effect of over 65% in size.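 As to activity change, negative = inhibition: plate controls were DMSO wells for no effect and tomatine positive control wells for full effect.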 The settings on record: SKOV3ip1-GFP adhesion/invasion on 3D omental model, fluorescence; series mostly up to 45.8 µM; activity change, negative = inhibition: at the top concentration. The gist of the method: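 Primary human omental fibroblast/mesothelial 3D culture pre-formed 48 h. SKOV3ip1-GFP cells added with compounds (0.36-46 umol/L), incubated 2 h RT/16 h 37 C, fixed; GFP cells quantified at 488/509 nm.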
Take `Cc1nn(CC(=O)NCc2ccccc2Br)c(=O)c2cc3occc3n12`: the outcome was inactive. Take `Cc1ccc(S(=O)(=O)N2CCCc3cc(NC(=O)c4c(F)cccc4F)ccc32)cc1`: the “activity change, negative = inhibition” value is inactive: -4.34%.

`CCc1ccc(C2=C(C)C(N3CCC(C(=O)NCc4ccc(C)o4)CC3)=NS2(=O)=O)cc1`: the “activity change, negative = inhibition” value is inactive: 5.89%.

As for `CCCCNC(=O)[C@@H](c1ccccc1)N1Cc2ccccc2C1=O`, the “activity change, negative = inhibition” value was inactive: 1.54%. On the same count and under the same terms, under `Cc1ccc(C(=O)Nc2ccc(F)cc2)cc1S(=O)(=O)N1CCOCC1` stands inactive: 3.19%; under `Cc1ccc(-n2c(=O)c3ccc(C(=O)NCc4ccccc4Cl)cc3n(CC(N)=O)c2=O)cc1`, inactive: 0.119%. Same read-out and setting: under `CCOc1ccccc1NC(=O)CSc1nccn1Cc1ccc(F)cc1` stands inactive: 2.01%; under `O=C(OCC1CCCO1)c1ccc2c(c1)N(Cc1ccccc1F)C(=O)c1ccccc1S2(=O)=O` (stereo unspecified), inactive: 0.791%; under `Cc1ccc(NC(=O)C2CCN(c3ncccn3)CC2)cc1F`, inactive: 8.2%. Regarding `COc1ccccc1OCCn1c(NC(=O)c2ccccc2)nc2ccccc21`, the “activity change, negative = inhibition” value is inactive: 2.54%. For the molecule `O=C(COc1cccc(Cl)c1)N1CCC(c2nc3ccccc3s2)CC1`, the “activity change, negative = inhibition” value was inactive: -8.38%. For `CCn1c(CNC(=O)C23CC4CC(CC(C4)C2)C3)nnc1SCC(=O)Nc1ccc(OC)cc1`, the call was inactive. The same measure, in the same setting: under `Cc1ccc(-n2c(SCC(N)=O)nc3c(oc4ccccc43)c2=O)cc1` stands “inactive”. Consider `COc1cc(OC)c(NC(=O)Nc2sc3nc4n(c(=O)c3c2C)CCC(C)CC4)cc1Cl` (stereo unspecified), for which the “activity change, negative = inhibition” value is inactive: -30.5%. On the same count and under the same terms, under `Cc1ccc(CCNC(=O)c2ccc(Cn3c(=O)c4cccn4c4cccnc43)cc2)cc1` stands inactive: -32%. Turning to `COc1ccc(NC(=O)CSc2nc3ccccc3n2CC(=O)Nc2cccc(C)c2C)cc1`, the “activity change, negative = inhibition” value was inactive: -13.5%. With `CCOc1ccccc1NC(=O)C(C)n1nnc2sc3c(c2c1=O)CCCC3` (stereo unspecified), the molecule was called inactive.

Consider `O=S(=O)(Nc1ccc(-c2ccc(N3CCCC3)nn2)cc1)c1ccccc1Cl`, for which the “activity change, negative = inhibition” value is inactive: 7.98%. Still for that read-out and setting: under `O=C(O)c1cccc(NC(=O)c2cccc(S(=O)(=O)Nc3cccc(F)c3)c2)c1` stands inactive: -0.71%; under `N#Cc1c[nH]n2c(NC3CCCC3)c(-c3ccc(Br)cc3)nc12`, inactive: 0.55%.

As to `Cc1cc(C)cc(NC(=O)c2cc(S(=O)(=O)N3CCOCC3)cn2C)c1`, the “activity change, negative = inhibition” value is inactive: 2.52%. On the same count and under the same terms, under `Cc1ccc(N2CCN(c3nc4ccccc4n4nnnc34)CC2)c(C)c1` stands inactive: 4.25%.

As to `COc1cccc(C(=O)Nc2ccccc2SCc2cc(=O)c3cccc(C)c3[nH]2)c1`, the molecule was called inactive. On to `CCOC(=O)c1cccc(NC(=O)C2(S(=O)(=O)c3ccc(C)cc3)CC2)c1`, for which the “activity change, negative = inhibition” value was inactive: 3.23%. With `O=C(CSc1nc2c([nH]c3ccccc32)c(=O)n1-c1cccc(C(F)(F)F)c1)N1CCCC1`, the “activity change, negative = inhibition” value is inactive: 5.85%. Same read-out and setting: under `COc1cn(CC(=O)Nc2ccc(C)cc2C)c(CN2CCCCC2)cc1=O` stands inactive: -3.94%. As for `COc1cccc(C(=O)Nc2ccc(-c3nc4ccc(C)cc4s3)cc2)c1OC`, the molecule was classed as inactive. With `CC(=O)c1ccc(NC(=O)/C=C/c2ccc(C)o2)cc1`, the outcome was inactive. Turning to `Cc1cc2c(cc1S(=O)(=O)N1CCC(C(N)=O)CC1)OCC(=O)N2`, the “activity change, negative = inhibition” value was inactive: 8.62%.

As for `Cc1ccc(Nc2c(-c3ccc(N4CCOCC4)cc3)nc3ccc(Cl)cn23)cc1`, the “activity change, negative = inhibition” value is inactive: 3.94%. On the same count and under the same terms, under `CCOc1ccc(C2c3c(oc4ccccc4c3=O)C(=O)N2Cc2ccc3c(c2)OCO3)cc1` (stereo unspecified) stands inactive: -17.3%; under `Cc1cccc(-c2nnn3c2nc(NCCC(C)C)c2ccccc23)c1`, inactive: 27.5%. Take `Cc1cc(C)c(NC(=O)Cn2nnc(-c3nc(-c4ccncc4)no3)c2N)c(C)c1`: the outcome was inactive. With `COc1ccc(S(=O)(=O)NCC(c2ccc(N(C)C)cc2)N2CCCC2)cc1F` (stereo unspecified), the “activity change, negative = inhibition” value was inactive: 0.532%. For the molecule `CC(=O)C1=C(c2ccc(C)cc2)N(C(C)=O)n2c(nnc2-c2ccccc2)S1`, the call was inactive. For the molecule `CCCNC(=O)C1CCC(Cn2c(=O)c3sccc3n(CC(=O)N3CCCC(C)C3)c2=O)CC1` (stereo unspecified), the “activity change, negative = inhibition” value is inactive: 4.22%. The same measure, in the same setting: under `CCOc1cccc(C2c3c(oc4ccc(F)cc4c3=O)C(=O)N2CCOC)c1` (stereo unspecified) stands inactive: 8.63%. As to `Cc1[nH]c2ccc(C(=O)NCCc3ccccc3Cl)cc2c1C`, the molecule was classed as inactive.

With `Cc1cccc(NC(=O)CN2C(=O)COc3ccc(S(=O)(=O)Nc4ccccc4)cc32)c1C`, the call was inactive. With `Oc1ccc(C2CCN(c3ccnc4ccccc34)CC2)cc1O`, the “activity change, negative = inhibition” value was inactive: 19%. For `Cc1cccc(OCC(=O)NCC2(N3CCN(C)CC3)CCCCC2)c1`, the molecule was classed as inactive. Consider `Cc1ccc(Cl)cc1N1CCN(S(=O)(=O)c2ccc3oc(=O)c4ncn(C)c4c3c2)CC1`, for which the “activity change, negative = inhibition” value is inactive: -3.58%. Take `Cc1ccccc1Cn1cc(NC(=O)c2cc(-c3ccc(Cl)cc3)on2)cn1`: the “activity change, negative = inhibition” value is inactive: 1.57%.

Consider `Cc1nn(-c2ccc(N3CCCC3)nn2)c(C)c1CCC(=O)NCc1ccc(F)cc1`, for which the “activity change, negative = inhibition” value was inactive: -17.9%. In the case of `COc1ccc(Nc2cc(C(=O)NCc3ccccc3)c3ccccc3n2)cc1`, the molecule was called inactive. Still for that read-out and setting: under `CCC1CN(C(=O)N2CCC(C(=O)NCc3ccc(C)o3)CC2)c2ccccc2O1` (stereo unspecified) stands “inactive”.

Turning to `CC(C)OCCCn1c(=O)c2ccccc2n2c(-c3ccc(F)c(F)c3)nnc12`, the “activity change, negative = inhibition” value was inactive: 24.6%. As for `Cc1ccc(S(=O)(=O)c2nnn3c2nc(NCc2ccc(F)cc2)c2sccc23)cc1C`, the “activity change, negative = inhibition” value is inactive: 1.59%. Same read-out and setting: under `CCCS(=O)(=O)N1CC(=O)N(c2ccccc2C)C(C)(C(=O)NC2CCCCC2)C1` (stereo unspecified) stands inactive: 3.68%. On to `Cc1ccc(OCCSc2nc3ccccc3n2CC(=O)N2CCCCC2)c(C)c1`, for which the molecule was called inactive.

Take `O=C(Nc1cccc(-c2nc3cc(Cl)ccc3o2)c1)c1ccc(F)cc1`: the “activity change, negative = inhibition” value is inactive: 4.22%. Consider `O=C(Cn1c(=O)n(Cc2ccc(F)cc2)c(=O)c2sc3ccccc3c21)NCc1ccccc1`, for which the “activity change, negative = inhibition” value is inactive: 36.6%. The same measure, in the same setting: under `O=C(NCc1noc2ccccc12)N1CCN(c2ccccc2F)CC1` stands inactive: 10.2%; under `O=C(CSC1=Nc2ccccc2C2=NC(Cc3ccccc3)C(=O)N12)Nc1ccccc1` (stereo unspecified), inactive: -11.6%. On the same count and under the same terms, under `COc1cccc(OCc2nc3ccccc3n2C)c1` stands inactive: -5.03%. With `O=C(CCn1cnc2onc(-c3ccc(F)cc3)c2c1=O)N1CCN(c2ccccc2)CC1`, the result was inactive. Take `Cc1ccc(C)c(Cn2c(C(C)NC(=O)c3ccccc3)nc3ccccc32)c1` (stereo unspecified): the “activity change, negative = inhibition” value is inactive: -22.6%. The same measure, in the same setting: under `Cc1nc2ccc(S(=O)(=O)N(CC(=O)Nc3cccc(C)c3C)Cc3ccccc3)cc2s1` stands inactive: 2.75%; under `O=C(Cn1c(=O)oc2cc(S(=O)(=O)N3CCCC3)ccc21)Nc1ccc(OC(F)(F)F)cc1`, inactive: -21.7%; under `Cc1ccc(NC(=O)C2CCC(CNS(=O)(=O)c3cccc4nsnc34)CC2)c(C)c1` (stereo unspecified), inactive: 0.659%.

On to `COc1ccc(-c2nc3sc(CCNC(=O)C(=O)Nc4ccc(C)cc4C)c(C)n3n2)cc1`, for which the “activity change, negative = inhibition” value was inactive: -3.29%. Still for that read-out and setting: under `COc1ccc(Cn2c(CCC(=O)Nc3cccc(Cl)c3)nc3cccnc32)cc1` stands inactive: -5.86%.

Turning to `Cc1nc(N2CCOCC2)c2c(C(=O)N3CCN(c4ccc(Cl)cc4)CC3)c(C)oc2n1`, the result was inactive.

On to `COc1ccc(-c2ccc(NS(=O)(=O)c3ccccc3Cl)cc2)nn1`, for which the “activity change, negative = inhibition” value was inactive: 9.92%. Same read-out and setting: under `CCOc1cccc2cc(-c3nc(-c4ccc(Cl)cc4)c(C)s3)c(=O)oc12` stands inactive: -2.61%; under `CCc1ccc(-c2cn3c(n2)sc2cc(C(=O)NCCCc4ccccc4)ccc23)cc1`, inactive: -6.54%. Regarding `COc1ccc(-c2nsc(NC(=O)c3cccc(OC)c3)n2)cc1`, the outcome was inactive. As for `CCOc1ccc(C(c2c(C)[nH]n(-c3ccccc3)c2=O)c2c(C)[nH]n(-c3ccccc3)c2=O)cc1OC`, the “activity change, negative = inhibition” value is inactive: -28.9%. Same read-out and setting: under `Cc1cccc(C(=O)NCC(=O)OCc2cc(=O)n3nc(C)sc3n2)c1` stands inactive: 9.14%; under `CC(Oc1ccccc1)C(=O)Nc1ccc(C(=O)OCc2cc(=O)n3ccsc3n2)cc1` (stereo unspecified), inactive: 6.26%. The same measure, in the same setting: under `N#Cc1nc(/C=C/c2ccc(F)cc2)oc1N1CCCCC1` stands inactive: 23%. On the same count and under the same terms, under `CCOc1ccccc1NC(=O)CN1Cc2ccccc2C1=O` stands inactive: -5.44%. In the case of `COC(=O)c1ccc(CN(Cc2ccc(OC)c(OC)c2)S(=O)(=O)c2ccc(F)c(C(=O)Nc3cc(C)ccc3C)c2)cc1`, the molecule was called inactive.

With `CCc1nn2c(=O)cc(COC(=O)c3cccs3)nc2s1`, the result was inactive. As to `COC(=O)[C@H](c1ccccc1Cl)N1CCc2sccc2C1`, the “activity change, negative = inhibition” value is inactive: 1.14%. Turning to `CC(C)(C)COc1ccc(-n2cc(C(=O)O)cn2)cc1C#N`, the “activity change, negative = inhibition” value is inactive: 10.8%. Turning to `Cc1ccc(Cn2cc3c(n2)-c2c(oc(C(=O)Nc4ccc(F)cc4F)c2C)CC3)cc1`, the “activity change, negative = inhibition” value was inactive: 4%. For `Cc1nc(SCC(=O)Nc2ccc(Cl)cc2C(F)(F)F)[nH]c(=O)c1Cc1ccccc1`, the “activity change, negative = inhibition” value was inactive: -26.9%.

As for `COc1ccc(CNC(=O)c2ccc3c(Cl)c4c(nc3c2)CCCC4)c(OC)c1`, the “activity change, negative = inhibition” value is inactive: 1.54%.

With `Cc1cc(-c2ccccc2)nc2cc(C(=O)Nc3cc(C(F)(F)F)ccc3Cl)nn12`, the “activity change, negative = inhibition” value is inactive: 13%. The same measure, in the same setting: under `Cc1cccc(Nc2cc(C)nc3nc(Cc4ccc(Cl)cc4)nn23)c1` stands inactive: -1.64%. As for `CCOC(=O)c1ccc(NC(=O)Cn2cc(S(=O)(=O)Cc3ccccc3F)c3ccccc32)cc1`, the molecule was classed as inactive. On the same count and under the same terms, under `CCn1cc(C(=O)NCCCOC(C)C)c(=O)c2cc(S(=O)(=O)N(C)C3CCCCC3)ccc21` stands “inactive”. In the case of `O=C(Nc1cc(-c2nc3cc(Cl)ccc3o2)ccc1Cl)c1cc2ccccc2o1`, the “activity change, negative = inhibition” value was inactive: -7.42%. For `CN(Cc1ccccc1)S(=O)(=O)c1ccc(F)c(C(=O)Nc2cc(Cl)cc(Cl)c2)c1`, the “activity change, negative = inhibition” value was inactive: -5.88%. Take `CC(=O)c1cccc(NC(=O)c2ccc3c(c2)c(C)c(C)n3Cc2ccc(Cl)cc2)c1`: the “activity change, negative = inhibition” value was inactive: -8.7%.

With `COc1cc(OC)c(NC(=O)CSCc2nc(-c3ccc(OC)c(OC)c3)no2)cc1Cl`, the “activity change, negative = inhibition” value was inactive: 5.76%. Same read-out and setting: under `Cc1ccc(C)c(N2CCN(S(=O)(=O)c3ccc4c(c3)n(C)c(=O)c(=O)n4C)CC2)c1` stands inactive: -0.907%. Turning to `CCOC(=O)c1c(-c2ccccc2)csc1NC(=O)c1cc(-c2cccc(Cl)c2)on1`, the call was inactive.

For the molecule `O=C(NCc1ccccc1)c1ccc(Cn2c(=O)c3cccn3c3cccnc32)cc1`, the “activity change, negative = inhibition” value is inactive: 2.72%. On the same count and under the same terms, under `COc1ccc(OC)c(NC(=O)c2cnc(N3CCCC3)nc2C)c1` stands inactive: 8.72%; under `Cc1ccc(C2C=C(c3ccc(F)cc3)Nc3nc(CCCO)nn32)cc1` (stereo unspecified), inactive: 16.4%; under `NC(=O)N1CCC(CC(=O)N2CCC([C@H]3c4ncc(Br)cc4CCc4cc(Cl)cc(Br)c43)CC2)CC1`, inactive: 15.6%. Same read-out and setting: under `CCOc1ccc(C(=O)c2cn(Cc3ccccc3)c3c(F)cc(F)cc3c2=O)cc1` stands inactive: -25.6%; under `CCCCc1ccc(NS(=O)(=O)c2ccc(N3CCCCS3(=O)=O)cc2)cc1`, inactive: 9.96%. `CC(=O)Nc1ccc(NS(=O)(=O)c2ccc(Cl)s2)cc1`: the molecule was called inactive.

Source of the values: PubChem BioAssay AID1963576 (National Center for Advancing Translational Sciences (NCATS), 2024).
